Assay results: PubChem BioAssay AID2101 (National Center for Advancing Translational Sciences (NCATS), 2009)
Out of some 330,000 compounds screened, about 300 (0.091%) were called active. The shares of active, inactive and inconclusive entries below differ from those in the screen. The call rests on the fitted dose curve; in most records, active means well fitted inhibition curve with a large enough effect; inconclusive means small, poorly fitted or top-dose-only effect, or effect the other way, or another doubt; inactive means no such curve, though single readings can be large or run the other way. No potency is given beside an inconclusive call; the fits are too rough.
Potency means the concentration at half of the fitted maximal effect.
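Wherever activity change, negative = inhibition is given: 0% = full enzyme activity and -100% = no enzyme basal.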

These compounds were tested against Lysosomal acid glucosylceramidase (Homo sapiens) (UniProt P04062) (assay: qHTS Assay for Inhibitors and Activators of N370S glucocerebrosidase as a Potential Chaperone Treatment of Gaucher Disease). Conditions: N370S GC spleen homogenate, 4MU-glucoside fluorescence; activity change, negative = inhibition: at 59.4 µM (top of the series) unless noted.
With `N#Cc1c(-c2ccncc2)c2c([nH]c1=O)-c1ccccc1OC2` the Potency was inconclusive [activator, partial curve]. In the case of `CCC(=O)OCc1cc(=O)oc2ccc3ccccc3c12`, the Potency is reported as inconclusive [activator, partial curve]. For `NCC(O)COCCC12CC3CC(CC(C3)C1)C2` (centres undefined), the Potency was inconclusive [inhibitor, single point]. `O=C(Nc1ccc(N2CCOCC2)c2nonc12)C1CCCC1` was tested, and the “activity change, negative = inhibition” value was inactive: 0.767%. `O=C(c1ccco1)N(Cc1cc2ccccc2[nH]c1=O)CC1CCCO1` (centres undefined) was tested, and the “activity change, negative = inhibition” value was inactive: 9.5%. With `Oc1ccc(-c2nnc(Nc3cccc(O)c3)c3ccccc23)cc1` the Potency was inconclusive [inhibitor, single point]. `N/C(=N\O)c1ccccc1N1CCCCC1` was tested, and the “activity change, negative = inhibition” value was inactive: 14%. In the case of `COC(=O)C1=CN(C)C=C(C(=O)OC)C1c1ccsc1`, the Potency is reported as inconclusive [activator, single point]. In the case of `Cc1cn(C(=O)c2ccccc2)c(=S)n1-c1ccc(Cl)cc1`, the Potency is reported as inconclusive [activator, partial curve]. In the case of `CCOC(=O)/C(C#N)=C/Nc1cc(OC)ccc1OC`, the Potency is reported as inconclusive [inhibitor, full curve, poor fit]. With `COCCCNC(=O)C1CCN(C(=O)c2oc3cc4sc(N(C)C)nc4cc3c2C)CC1` the “activity change, negative = inhibition” value was inactive: -1.33%. `CC1Cc2cc(/C(O)=C3/C(=O)C(=O)N(CCCn4ccnc4)C3c3ccc(Br)cc3)ccc2O1` (centres undefined) was tested, and the Potency was inconclusive [inhibitor, full curve]. `O=C(CSc1nnc(Cc2ccccc2)n1Cc1ccco1)NC12CC3CC(CC(C3)C1)C2` was tested, and the Potency was inconclusive [activator, partial curve]. In the case of `CC(NC(=O)c1cc2c(s1)CCCC2)C(C)(C)C` (centres undefined), the Potency is reported as inconclusive [activator, partial curve]. In the case of `O=C(/C=C/c1cn(-c2ccccc2)nc1-c1ccc2c(c1)OCCO2)NCCCN1CCOCC1`, the Potency is reported as inconclusive [inhibitor, partial curve]. With `CCc1ccc(C(=O)Cc2cc3cccc(OC)c3oc2=O)cc1` the Potency was inconclusive [inhibitor, partial curve, poor fit]. In the case of `O=C1C(Cl)=C(NCC2CCCO2)C(=O)N1CCc1ccccc1` (centres undefined), the “activity change, negative = inhibition” value is reported as inactive: 6.04%. `Cc1cccc(N2CCN(C(=O)C3CCN(c4ncnc5c4nc4n5CCCCC4)CC3)CC2)c1C` was tested, and the Potency was inconclusive [inhibitor, single point]. `C#CCOCCOCCOCCNc1nc(N2CCN(C(=O)CCCCCCCCCCNC(=O)[C@H](CCCCN)n3cc(C)nn3)CC2)nc(N2CCN(C(=O)CCCCCCCCCCNC(=O)[C@H](CCCCN)n3cc(CCCC(=O)O)nn3)CC2)n1` was tested, and the Potency was inconclusive [inhibitor, partial curve]. For `Cc1ccc(/C=C/C(=O)N2CCN(Cc3ccccc3)CC2)o1`, the “activity change, negative = inhibition” value was inactive: -2.3%. For `CCOc1ccc(NC(=O)CCCN2C(=S)NC(C)(C)CC2C)cc1` (centres undefined), the “activity change, negative = inhibition” value was inactive: 3.91%. In the case of `CC1=Nc2cc(C(=O)NCCN3CCOCC3)ccc2Sc2c(C)ccc(C)c21`, the Potency is reported as inconclusive [inhibitor, partial curve]. In the case of `Cc1ccsc1/C=N/N=C/c1sccc1C`, the “activity change, negative = inhibition” value is reported as inactive: 11.5%. For `O=C(OCC(=O)N1CCN(C(=O)c2ccco2)CC1)c1ccccc1NCCO`, the Potency was inconclusive [activator, partial curve]. For `CCOC(=O)c1cc2c(s1)-c1c(C)cccc1OC2`, the Potency was inconclusive [activator, single point]. For `C=CCOc1ccc(CNc2ccc3[nH]c(=O)[nH]c3c2)cc1`, the “activity change, negative = inhibition” value was inactive: 5.68%. In the case of `O=[N+]([O-])c1cc(S(=O)(=O)Nc2ccccc2)ccc1N1CCN(c2ccccc2)CC1`, the “activity change, negative = inhibition” value is reported as inactive: -3.57%. In the case of `OCCC1CN(Cc2nc(-c3ccccc3)cs2)CCN1Cc1ccc(F)cc1` (centres undefined), the “activity change, negative = inhibition” value is reported as inactive: -16.6%. With `CN=c1scc(-c2ccc([N+](=O)[O-])cc2)n1/N=C/c1ccco1` the “activity change, negative = inhibition” value was inactive: 2.61%. `Cc1ccc(Nc2nc(NCc3ccco3)c3ccccc3n2)cc1` was tested, and the Potency was inconclusive [inhibitor, partial curve]. With `CN1CCN(C(=S)c2cn(Cc3ccc(Br)cc3)c3ccccc23)CC1` the Potency was inconclusive [inhibitor, single point]. With `CC1(C)Cc2c(sc(NC(=O)c3ccc(C(=O)c4ccccc4)cc3)c2C(N)=O)C(C)(C)N1` the Potency was inconclusive [inhibitor, partial curve, poor fit]. With `CO/N=C/c1ccc(N2CCN(C(=O)c3cccc(Cl)c3)CC2)c([N+](=O)[O-])c1` the Potency was inconclusive [inhibitor, single point]. With `CC(C)(C)c1ccc(-c2nc(C#N)c(NCCCn3ccnc3)o2)cc1` the Potency was inconclusive [inhibitor, partial curve]. For `CCN(CCn1cccn1)Cc1nc(-c2ccccc2)no1`, the Potency was inconclusive [inhibitor, partial curve]. In the case of `CCNc1ncc2ncc(=O)n(C3CC3)c2n1`, the Potency is reported as inconclusive [activator, partial curve]. For `CCCCCOc1ccc(/C(C)=N/NC2=NCCN2)cc1`, the Potency was inconclusive [inhibitor, partial curve, poor fit]. For `COc1ccc(C(C(=O)NC2CCCC2)N(C(=O)c2snc(C(N)=O)c2N)c2ccccc2OC)cc1OC` (centres undefined), the Potency was inconclusive [activator, single point]. `Cc1ccc(C2OC34CCCCCC3C(C#N)(C(=N)O4)C2(C#N)C#N)cc1` (centres undefined) was tested, and the Potency was inconclusive [activator, single point]. `Cc1cc(NC(=O)CS(=O)(=O)c2cn(C)c3ccccc23)no1` was tested, and the Potency was inconclusive [inhibitor, partial curve]. With `Cc1ccc(-n2nc(-c3ccccc3)cc2Nc2ccccc2N)cc1` the “activity change, negative = inhibition” value was inactive: 1.8%. In the case of `Cc1ccccc1OCCn1cc(C(=S)N2CCN(C)CC2)c2ccccc21`, the Potency is reported as inconclusive [inhibitor, partial curve]. For `CSc1ccc(CC(=O)N2CCC(n3nccc3NC(=O)C3CC3)CC2)cc1`, the “activity change, negative = inhibition” value was inactive: -8.36%. In the case of `O=C(CSc1ccc2ccccc2c1)N1CCN(c2ccc(O)cc2)CC1`, the “activity change, negative = inhibition” value is reported as inactive: -21.9%. `Clc1cncc(Cl)c1NNc1c2ccccc2nc2ccccc12` was tested, and the Potency was inconclusive [activator, partial curve]. With `Cn1c2c(c(=O)n(C)c1=O)NC1(N2)C(=O)Nc2ccccc21` (centres undefined) the Potency was inconclusive [activator, single point]. With `S=C(Nc1ccc(Cl)cc1)N(CCCN1CCOCC1)Cc1cccs1` the Potency was inconclusive [inhibitor, partial curve]. With `Cc1sc2nc(SCc3nc4ccccc4[nH]3)n(Cc3ccco3)c(=O)c2c1C` the Potency was inconclusive [activator, full curve]. For `Cc1ccc(/C=C/C(=O)NCc2ccco2)o1`, the “activity change, negative = inhibition” value was inactive: -3.85%. In the case of `Cc1ccccc1-c1cncnc1NCc1cccs1`, the “activity change, negative = inhibition” value is reported as inactive: -5.25%. In the case of `C#CCNC(=O)C1=C[C@H](c2cn(C(C)=O)c3ccccc23)C[C@H](OCc2ccc(CO)cc2)O1`, the Potency is reported as inconclusive [activator, partial curve]. For `Cc1ccc(-c2csc(NC(=O)CSc3nc(C)cs3)n2)cc1`, the “activity change, negative = inhibition” value was inactive: 5.64%. `CCC(C)NC(=O)c1cc2cc3ccc(OC)cc3nc2o1` (centres undefined) was tested, and the Potency was inconclusive [activator, partial curve]. For `CCOC(=O)NC(=O)COC(=O)c1ccc(Sc2ncn[nH]2)c([N+](=O)[O-])c1`, the “activity change, negative = inhibition” value was inactive: -6.22%. In the case of `CC(Oc1cc2oc(=O)c3c(c2cc1Cl)CCC3)C(=O)NCCN1CCOCC1` (centres undefined), the Potency is reported as inconclusive [inhibitor, single point]. `COc1ccccc1/C=C/C(=O)Oc1cccc2cccnc12` was tested, and the Potency was inconclusive [activator, single point]. For `CCOC(=O)Cc1nn(Cc2nc(-c3ccc(C)cc3)cs2)c(=O)c2ccccc12`, the Potency was inconclusive [activator, partial curve]. In the case of `COc1cccc(C(=O)Nc2nc3ccccc3[nH]2)c1`, the “activity change, negative = inhibition” value is reported as inactive: 5.7%. With `CC(=O)Nc1ccc(S(=O)(=O)NCc2ccc3[nH]c(C)cc3c2)cc1` the Potency was inconclusive [inhibitor, partial curve]. For `CCNC(=O)c1ccc(CSc2nc3ccccc3s2)cc1`, the Potency was inconclusive [inhibitor, single point]. `Cc1ccccc1OCC(O)Cn1c(=N)n(Cc2ccccc2)c2ccccc21` (centres undefined) was tested, and the Potency was inconclusive [inhibitor, single point]. For `Oc1ccc2ccc3[nH]cnc3c2c1`, the “activity change, negative = inhibition” value was inactive: -7.07%. In the case of `Cc1cc(OC(C)C(=O)NCCN2CCOCC2)c2c(C)c(C)c(=O)oc2c1` (centres undefined), the Potency is reported as inconclusive [inhibitor, partial curve]. For `CCCC(=O)NCCc1cc2cc(C)c(C)cc2[nH]c1=O`, the “activity change, negative = inhibition” value was inactive: 24.8%. In the case of `Cn1cccc1/C=C1\Cc2ccccc2C1=O`, the “activity change, negative = inhibition” value is reported as inactive: 4.86%. `C[C@H](NC(=O)CNC(=O)[C@@H](NC(=O)[C@H](Cc1ccccc1)NC(=O)CNC(=O)CNC(=O)[C@@H](N)Cc1ccccc1)[C@@H](C)O)C(=O)N[C@@H](CCCN=C(N)N)C(=O)N[C@@H](CCCCN)C(=O)N[C@@H](CO)C(=O)N[C@@H](C)C(=O)N[C@@H](CCCN=C(N)N)C(=O)N[C@@H](CCCCN)C(N)=O` was tested, and the “activity change, negative = inhibition” value was inactive: -1.42%. For `O=C(NCc1ccccn1)c1ccc2c(c1)N(Cc1ccccc1)CCS2`, the Potency was inconclusive [activator, partial curve]. In the case of `COc1ccc(NC(=S)N/C(=N/S(=O)(=O)c2ccc(C)cc2)c2ccccc2)cc1`, the “activity change, negative = inhibition” value is reported as inactive: 4.26%. In the case of `O=C(NNC(=O)C1C2C=CC(C2)C1C(=O)O)c1cc(Cl)ccc1O` (centres undefined), the Potency is reported as inconclusive [activator, single point].
